# Counter-ions that a name gives are not always drawn. ± gives the standard error. Hit rate of the full screen: of about 1,300 compounds, about 75 (6%) showed an effect of 50% or more. The list shows a part of the results.
# System: Trichoderma virens ATCC 9645
# Test: growth yield (OD600) relative to untreated control; higher = less growth inhibition
# Settings: compound concentration: 100 uM
# In short: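 Trichoderma virens ATCC 9645 spores from 7-day potato dextrose agar plates were suspended in potato dextrose broth at 15,000 spores ml^−1. Aliquots of 100 μl with library compounds at 100 μM final, with or without a co-applied biocide at 200 ng ml^−1, were grown in 96-well plates at 30 °C. OD600 was read at 40 h and 72 h on a BioTek EL800. Growth is expressed relative to the control without either agent, as means of duplicate screens.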
SMILES,growth yield (40 h) [%],growth yield (72 h) [%]
O=C(O)CNC(=O)C(CS)Cc1ccccc1 (stereo unspecified) [Thiorphan],97.8 ± 1.9,98.06 ± 0.32
CN(C)CCC(c1ccc(Cl)cc1)c1ccccn1 (stereo unspecified) [Chlorpheniramine maleate],101 ± 1.8,103 ± 2.7
COc1cc(N)c(Cl)cc1C(=O)NC1CCN(CCCOc2ccc(F)cc2)CC1OC (stereo unspecified) [Cisapride],108,109
COC1=CC(=O)C[C@@H](C)[C@]12Oc1c(Cl)c(OC)cc(OC)c1C2=O [Griseofulvin],81.3 ± 10,93.7 ± 6.8
CCOC(=O)C1=C(C)NC(C)=C(C(=O)OC)C1c1cccc([N+](=O)[O-])c1 (stereo unspecified) [Nitrendipine],85.6 ± 1.1,89.9 ± 3.7
CCn1cc(C(=O)O)c(=O)c2cc(F)c(N3CCNCC3)cc21 [Norfloxacin],93.1 ± 1.9,90.9 ± 3.2
O=C(c1ccc(OCCN2CCCCC2)cc1)c1c(-c2ccc(O)cc2)sc2cc(O)ccc12 [Raloxifene hydrochloride],97.1 ± 8.7,106 ± 8.2
CC(CN1c2ccccc2Sc2ccccc21)N(C)C (stereo unspecified) [Promethazine hydrochloride],98.5,103 ± 1.1
NS(=O)(=O)c1cc2c(cc1C(F)(F)F)NC(Cc1ccccc1)NS2(=O)=O (stereo unspecified) [Bendroflumethiazide],106 ± 3.3,102 ± 3.4
COc1cc(N)c(Cl)cc1C(=O)NC1CCN(Cc2ccccc2)CC1 [Clebopride maleate],99.28 ± 0.48,102 ± 1.5
CCN1CCCC1CNC(=O)c1cc(S(=O)(=O)CC)c(N)cc1OC (stereo unspecified) [Amisulpride],96.6 ± 1.6,99.5 ± 1.6
Nc1nc(N)nc(-c2cc(Cl)ccc2Cl)n1 [Irsogladine maleate],99.43 ± 0.95,93.8 ± 1.1
CC(C)[C@H]1CC[C@H](C(=O)N[C@H](Cc2ccccc2)C(=O)O)CC1 [Nateglinide],99.1 ± 5.4,94 ± 6.7
CC(C)c1nc(CN(C)C(=O)N[C@H](C(=O)N[C@@H](Cc2ccccc2)C[C@H](O)[C@H](Cc2ccccc2)NC(=O)OCc2cncs2)C(C)C)cs1 [Ritonavir],112 ± 4.8,115 ± 9.1
COc1ccccc1OCCNCC(O)COc1cccc2[nH]c3ccccc3c12 (stereo unspecified) [Carvedilol],108 ± 4,111.8 ± 1.1
CC1CCc2cc(F)cc3c(=O)c(C(=O)O)cn1c23 (stereo unspecified) [Flumequine],95.5 ± 2.4,98.9 ± 4.7
O=C(NCC1CCCCN1)c1cc(OCC(F)(F)F)ccc1OCC(F)(F)F (stereo unspecified) [Flecainide acetate],98 ± 2.7,95.2 ± 4.8

SMILES,growth yield (40 h) [%],growth yield (72 h) [%]
CCCCOc1ccc(OCCCN2CCOCC2)cc1 [Pramoxine hydrochloride],89.6 ± 1.9,90.5 ± 2.2
CC(CCc1ccc(O)cc1)NCCc1ccc(O)c(O)c1 (stereo unspecified) [Dobutamine hydrochloride],90.5 ± 1.6,88.9 ± 3.1
CNCC[C@@H](Oc1cccc2ccccc12)c1cccs1 [(R)-Duloxetine hydrochloride],99.1 ± 2.9,107 ± 3.1
Nc1ccc(S(N)(=O)=O)cc1 [Sulfanilamide],105 ± 4.5,100 ± 3.4
CCOC(=O)c1ccc(C#Cc2ccc3c(c2)C(C)(C)CCS3)nc1 [Tazarotene],90.38 ± 0.48,95.65 ± 0.21
CCC(C)(C)c1ccc(CC(C)CN2C[C@@H](C)O[C@@H](C)C2)cc1 (stereo partly specified) [Amorolfine hydrochloride],4.45 ± 0.32,2.94 ± 0.21
CC[C@]12CCCN3CCc4c(n(c5ccccc45)[C@@](O)(C(=O)OC)C1)[C@@H]32 [Vincamine],97.37 ± 0.16,95.3 ± 1.4
CNC1(C)C2CCC(C2)C1(C)C (stereo unspecified) [Mecamylamine hydrochloride],95.8 ± 5.6,91.7 ± 2.9
CC(=C(CCO)SSCC1CCCO1)N(C=O)Cc1cnc(C)nc1N (stereo in doubt) [Fursultiamine Hydrochloride],104 ± 5.2,101 ± 3.1
CCC(C)(CN(C)C)OC(=O)c1ccccc1 (stereo unspecified) [Amyleine hydrochloride],103 ± 6.8,100 ± 4.6
C=C(NC(=O)C(=C)NC(=O)c1csc(C2=N[C@@H]3c4csc(n4)[C@H]4NC(=O)c5csc(n5)[C@H]([C@](C)(O)[C@@H](C)O)NC(=O)[C@H]5CSC(=N5)/C(=C/C)NC(=O)[C@H]([C@@H](C)O)NC(=O)c5csc(n5)[C@]3(CC2)NC(=O)[C@H](C)NC(=O)C(=C)NC(=O)[C@H](C)NC(=O)[C@H]([C@@H](C)CC)N[C@@H]2C=Cc3c([C@H](C)O)cc(nc3[C@H]2O)C(=O)O[C@@H]4C)n1)C(N)=O [Thiostrepton],96.6 ± 2.9,99 ± 2.1
Cn1c(=O)c2c(ncn2CC(O)CO)n(C)c1=O (stereo unspecified) [Diprophylline],102 ± 4,101 ± 2.8
NC(=O)c1cccnc1 [Nicotinamide],105 ± 4.3,101 ± 4
CC(C)(Oc1ccc(C2CC2(Cl)Cl)cc1)C(=O)O (stereo unspecified) [Ciprofibrate],95.5 ± 2.4,85.58 ± 0.84
CC1=C(C(=O)O)N2C(=O)[C@@H](NC(=O)[C@H](N)c3ccc(O)cc3)[C@H]2SC1 [Cefadroxil],104 ± 8.9,106 ± 9.1
C=CCN1CCCC1CNC(=O)c1cc2nn[nH]c2cc1OC (stereo unspecified) [Alizapride hydrochloride],108 ± 4.3,109 ± 2.7
